Among all 390,000 compounds or so, about 930 (0.24%) were called active. Inconclusive results, whose numbers are uncertain, are shown with a selection of clear calls. The call rests on the fitted dose curve; in most records, active means well fitted activation curve with a large enough effect; inconclusive means small, poorly fitted or top-dose-only effect; inactive means no such curve, though single readings can be large or run the other way. Potencies of inconclusive entries are doubtful fits and often do not repeat.
Experiment: qHTS for Suppressors of FUS Proteinopathy: Primary screen using FUS-linked yeast assay; further: nearly all actives have a fitted effect of over 55% in size;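 on growth rescue (activation): plate controls were DMSO vehicle for no effect and reference control for full effect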
Details: S. cerevisiae FUS-expressing, OD600, 24 h; Potency: growth rescue; growth rescue (activation): at 76.6 µM (top of the series)
Outline: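 Compound concentration series was pinned onto galactose-induced FUS-expressing yeast seeded at OD 0.005. Plates sat 24hr at 30C; absorbance at 600 nm gave growth. DMSO served as background control.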
For `CCCc1ccc2oc(C(=O)N(Cc3ccncc3)CC3CCCO3)c(C)c2c1` (stereo not drawn), the Potency was inconclusive: 12.6 µM [activator, partial curve, poor fit]. With `COC(=O)C[C@@H]1CC[C@H]2[C@H](COc3ccc(NC(=O)Nc4cccc(C#N)c4)cc3C(=O)N2C)O1` the Potency was “inactive”. With `Cc1ccccc1OCC(=O)Nc1ccccc1-c1ccccc1` the Potency was inconclusive: 44.7 µM [activator, single point]. For `COc1nc(-c2ccccc2)cc(-c2ccc(OC)c(OC)c2)n1`, the Potency was inconclusive: 28.2 µM [activator, single point]. For `CCN1CCN(CC(=O)c2c(C)n(C)c3ccc(OC)cc23)CC1`, the Potency was inconclusive: 0.891 µM [activator, full curve, poor fit]. With `CSc1cccc(NC(=O)N2CCc3ccc(NC(=O)c4ccccn4)cc3C2)c1` the Potency was inconclusive: 14.1 µM [activator, partial curve]. For `CN1CC=C2C(C#N)=C(N)C(C#N)(C#N)C(c3ccsc3)C2C1` (stereo not drawn), the Potency was “inactive”. In the case of `O=C1CCC2(CCC(c3ccccc3)CC2)N1CCO` (stereo not drawn), the Potency is reported as “inactive”. With `O=P(O)(CCc1ccccn1)CN1CCOCC1` the growth rescue (activation) was inconclusive: 52.4% [activator]. With `CN(C(=O)c1ccc(NC(=O)Cc2ccc(NC(=O)C3CCCN(S(=O)(=O)c4cccc([N+](=O)[O-])c4)C3)cc2)cc1)C1CCCC1` (stereo not drawn) the Potency was inconclusive: 14.1 µM [activator, partial curve, poor fit]. In the case of `CCCNC(=O)CCn1c(-c2ccc(C)cc2)cc(C(=O)OCC)c1C`, the Potency is reported as inconclusive: 28.2 µM [activator, partial curve, poor fit]. In the case of `COc1ccc(N(C)C(=O)Cn2cc(S(=O)(=O)N3CCN(c4ccccc4F)CC3)c3ccccc3c2=O)c(OC)c1`, the Potency is reported as inconclusive: 50.1 µM [activator, single point]. In the case of `CN(c1ccccc1)S(=O)(=O)c1cccc(C(=O)Nc2ccc(N3CCOCC3)cc2)c1`, the Potency is reported as inconclusive: 25.1 µM [activator, single point]. In the case of `CC1CCN(c2ccc(-c3cccc(NS(=O)(=O)c4ccc(F)cc4F)c3)nn2)CC1`, the Potency is reported as inconclusive: 25.1 µM [activator, partial curve, poor fit]. For `O=C1CC(Sc2nnc(-c3ccccc3O)o2)C(=O)N1c1ccccc1` (stereo not drawn), the Potency was inconclusive: 50.1 µM [activator, single point]. In the case of `CCOC(=O)c1sc(NC(=O)c2c(-c3ccccc3)c(-c3ccccc3)nn(C)c2=O)nc1C`, the Potency is reported as inconclusive: 12.6 µM [activator, partial curve, poor fit]. For `O=C(NC1CCCCN(Cc2cccc(F)c2)C1=O)c1ccc(-c2ccccc2)cc1` (stereo not drawn), the Potency was “inactive”. In the case of `COC(=O)[C@]12C[C@H](CC(=O)NCc3cccc4ccccc34)C(=O)N(Cc3ccc(Cl)cc3Cl)C1=C[C@H](C1CCCC1)O[C@@H]2C`, the Potency is reported as inconclusive: 12.6 µM [activator, partial curve]. With `O=S(=O)(c1ccc(NC(=S)N/N=C/c2c3ccccc3cc3ccccc23)cc1)N1CCOCC1` the Potency was inconclusive: 15.8 µM [activator, partial curve, poor fit]. With `Cc1ccc(-c2nc(C)c(CCNC(=O)c3ccccc3Br)s2)cc1` the Potency was “inactive”. With `COc1cc2nc(CN(C)Cc3nc4ccccc4c(=O)[nH]3)[nH]c(=O)c2cc1OC` the Potency was inconclusive: 44.7 µM [activator, partial curve, poor fit]. With `CC(=O)Nc1ccc(Nc2cc(C(C)C)nc3c(-c4ccccc4)c(C)nn23)cc1` the Potency was inconclusive: 31.6 µM [activator, single point]. For `COc1cccc(NC(=O)C2CCC(CNS(=O)(=O)c3cccc4cccnc34)CC2)c1` (stereo not drawn), the Potency was inconclusive: 28.2 µM [activator, single point]. In the case of `CC(=O)Nc1ccc(S(=O)(=O)N(C)CC(=O)OCC(=O)c2cc(C)n(-c3ccc4c(c3)OCO4)c2C)cc1`, the Potency is reported as inconclusive: 25.1 µM [activator, single point]. With `COc1ccc(NC(C)=O)cc1NC(=O)c1cccc(S(=O)(=O)N2CCc3ccccc32)c1` the Potency was inconclusive: 44.7 µM [activator, single point]. For `Cc1cc(C(=O)NNC(=S)NCc2ccccc2)cs1`, the Potency was inconclusive: 12.6 µM [activator, partial curve, poor fit]. For `CCCCNC(=O)O[C@@H]1C[C@H]2CCC(=O)N3CC[C@@H](C1)[C@@H]23`, the Potency was “inactive”. For `COc1ccc(C(=O)OCc2c(-c3ccccc3)ncc3ccccc23)cc1`, the Potency was inconclusive: 22.4 µM [activator, partial curve, poor fit]. In the case of `CCOc1ccc(C(=O)Nc2nnc(SCc3cc(=O)n4ccccc4n3)s2)cc1`, the Potency is reported as “inactive”. For `Cc1cccc([C@@H]2[C@@H]3C(=O)N(Cc4ccccc4)C(=O)[C@@H]3[C@]3(Cc4ccc(Cl)cc4)C(=O)N(c4ccc(Br)cc4)C(=O)N23)c1`, the Potency was inconclusive: 15.8 µM [activator, partial curve, poor fit]. For `O=C(CSc1nc2[nH]ncc2c(=O)n1-c1ccc(Cl)c(Cl)c1)NCc1ccccc1Cl`, the Potency was inconclusive: 35.5 µM [activator, partial curve, poor fit]. For `Cc1ccc2onc(CC(=O)N3CCN(c4cccc(Cl)c4)CC3)c2c1`, the Potency was inconclusive: 35.5 µM [activator, single point]. In the case of `O=C1SCCN1N=Cc1ccc([N+](=O)[O-])o1`, the Potency is reported as “inactive”. For `COc1ccc(C2c3c(-c4ccccc4)n[nH]c3C(=O)N2c2ccc(C(=O)O)cc2)cc1` (stereo not drawn), the Potency was inconclusive: 28.2 µM [activator, single point]. For `CCOC(=O)C1=C(CSc2nc3ccccc3s2)NC(=O)NC1c1ccc(OC)cc1` (stereo not drawn), the Potency was inconclusive: 7.08 µM [activator, full curve, poor fit]. With `O=C(c1ccccc1Br)N1N=C(c2ccccc2)CC1c1ccccc1F` (stereo not drawn) the Potency was inconclusive: 35.5 µM [activator, partial curve, poor fit]. For `CCCCNc1c(-c2ccc(OC)c(Sc3ccc(OC)cc3)c2)nc2cnccn12`, the Potency was inconclusive: 35.5 µM [activator, single point]. For `Cc1ccc(C(=O)C2=C(O)C(=O)N(Cc3cccnc3)C2c2cccc(Oc3ccccc3)c2)o1` (stereo not drawn), the Potency was inconclusive: 31.6 µM [activator, partial curve, poor fit]. In the case of `COc1ccc(N2CCN(Cc3nc4c(c(=O)[nH]c(=O)n4C)n3CCCc3ccccc3)CC2)cc1`, the Potency is reported as “inactive”. In the case of `CCCCOc1ccc(C(=O)N(Cc2ccccc2)C2CCS(=O)(=O)C2)cc1` (stereo not drawn), the Potency is reported as inconclusive: 4.47 µM [activator, full curve]. For `N#Cc1ccc(S(=O)(=O)N2CCCCC2c2cc(C(=O)Nc3cccc4c3CCCC4)no2)cc1` (stereo not drawn), the Potency was inconclusive: 25.1 µM [activator, single point]. In the case of `CC(C)(C)n1ncc2c(=O)n(CC(=O)NCc3ccccc3Cl)cnc21`, the Potency is reported as inconclusive: 3.55 µM [activator, single point]. With `CC(C)C[C@@H](CN1CCC[C@@H]1CN1C(=S)NC[C@@H]1Cc1ccc(O)cc1)N1C[C@H](Cc2ccc(O)cc2)N(CCc2ccccc2)C1=S` the Potency was active: 35.5 µM. In the case of `CN(C)c1cccc(NC(=O)C2Cc3c(-c4ccccc4Oc4ccccc4)ccnc3O2)c1` (stereo not drawn), the Potency is reported as active: 25.1 µM. With `Cc1ccc2c(c1)N(C(=O)CCC(=O)NCc1cccc(F)c1)CC(C)O2` (stereo not drawn) the Potency was “inactive”. With `Cc1ccc(S(=O)(=O)NC(=O)c2cc(C)n(-c3ccc(N(C)C)cc3)c2C)cc1` the Potency was inconclusive: 22.4 µM [activator, single point]. With `CCN(CC(O)Cn1c2ccccc2c2ccccc21)S(=O)(=O)c1ccc(C)cc1` (stereo not drawn) the Potency was inconclusive: 35.5 µM [activator, partial curve]. With `CC(=O)O[C@H]1[C@H](O)[C@H](Oc2c(O)c(C)c3c4c2[C@@H](C)CC[C@@H]4[C@@H](C)C[C@H]3C=C(C)C)O[C@@H](C)[C@H]1O` the Potency was inconclusive: 28.2 µM [activator, single point]. In the case of `Cc1ccc(C(=O)N2CCN(c3ccc4c(c3)C3CC4CCN3C(=O)OCc3ccccc3)CC2)cc1` (stereo not drawn), the Potency is reported as inconclusive: 31.6 µM [activator, partial curve, poor fit]. In the case of `COc1cccc(-c2cn(C[C@H]3CC[C@@H]([C@@H]4CC[C@H](Cn5cc(-c6cccc(OC)c6)nn5)O4)O3)nn2)c1`, the Potency is reported as inconclusive: 22.4 µM [activator, single point]. For `Cc1cccc(C(=O)Nc2cc(NC(=O)c3cccs3)ccc2C)c1`, the Potency was inconclusive: 28.2 µM [activator, single point]. With `COc1ccc(-c2nnc(C3CCN(S(=O)(=O)c4cccc(Cl)c4)CC3)o2)cc1` the Potency was “inactive”. For `COc1cc(-c2nc(SCC(=O)Nc3ccc4c(c3)OCO4)c(-c3ccccc3)[nH]2)cc(OC)c1OC`, the Potency was inconclusive: 28.2 µM [activator, single point]. In the case of `CCN(CC)S(=O)(=O)c1ccc(NC(=O)Cn2c(=O)sc3ccccc32)cc1`, the Potency is reported as inconclusive: 28.2 µM [activator, single point]. With `Cc1c(C(=O)N/N=C/c2ccccc2)sc(=S)n1C` the Potency was inconclusive: 20 µM [activator, single point]. In the case of `COc1ccc([C@H]2CC(=O)C=C(c3ccc4c(c3)OCCO4)C2)cc1`, the Potency is reported as “inactive”. With `COc1ccc(CCN2C(=O)N(c3cccc(C)c3)C(=O)C2CC(=O)Nc2ccccc2)cc1OC` (stereo not drawn) the Potency was inconclusive: 11.2 µM [activator, partial curve, poor fit]. With `O=C1CC(=C(c2ccccc2)c2ccccc2)C(=O)N1CCN1CCN(c2cccc(Cl)c2)CC1` the Potency was “inactive”.
Potency means the concentration at half of the fitted maximal effect; tags describe the fitted curve by direction and shape.
